Our source for the IC50 and inhibition values is US20250368649A1, “TETRAHYDROPYRIDOPYRIMIDINE PAN-KRAS INHIBITORS” (Mirati Therapeutics, Inc., priority 2022, published 2025).

SMILES strings stand for the structures. Bounds are passed on as bounds.

In one assay the target is KRas G12S (Homo sapiens, UniProt P01116, G12S). The format is binding. Particulars: TR-FRET displacement, read-out: Binding to KRas (IC50 nM) G12S.
For another assay, the target named is KRas Q61H (Homo sapiens, UniProt P01116, Q61H). Nature of the assay: KRas binding assay (TR-FRET displacement), KRas Q61H. Particulars: TR-FRET displacement.
Another assay addresses KRas G12C (Homo sapiens, UniProt P01116, G12C). In kind it is binding. As to conditions: TR-FRET displacement, read-out: Binding to KRas (IC50 nM) G12C.
The next assay deals with KRas G13D (Homo sapiens, UniProt P01116, G13D). In kind it is binding. Particulars: TR-FRET displacement, read-out: Binding to KRas (IC50 nM) G13D.
The next assay deals with KRas WT (Homo sapiens, UniProt P01116). The assay is described as follows: KRas binding assay (TR-FRET displacement), KRas WT. As to conditions: TR-FRET displacement.
Another assay concerns the target KRas G12A (Homo sapiens, UniProt P01116, G12A). The format is binding. Particulars: TR-FRET displacement, read-out: Binding to KRas (IC50 nM) G12A.
The next assay relates to H460 cells. The assay is described as follows: Inhibition of KRas-mediated phosphorylation of ERK (Cisbio HTRF pERK), H460 cells. In kind it is cell-based. As to conditions: Homo sapiens, NCI-H460, single point at 100 nM, 3 hrs compound incubation.
A further assay relates to H727 cells. Nature of the assay: Inhibition of KRas-mediated phosphorylation of ERK (Cisbio HTRF pERK), H727 cells. The format is cell-based. Particulars: Homo sapiens; for IC50: NCI-H727, 3 h, 3 hr compound incubation.
In another assay the test system is ASPC1 cells. The assay is described as follows: Inhibition of KRas-mediated phosphorylation of ERK (Cisbio HTRF pERK), ASPC1 cells. The format is cell-based. Particulars: Homo sapiens, AsPC-1 cells; for IC50: ASPC1, 3 h, 3 hr compound incubation.
A further assay has as its system HCT116 cells. Nature of the assay: Inhibition of KRas-mediated phosphorylation of ERK (Cisbio HTRF pERK), HCT116 cells. In kind it is cell-based. Particulars: Homo sapiens, HCT-116, single point at 100 nM, 3 hrs compound incubation.

For the molecule `CCc1cccc2cccc(N3CCc4c(nc(OCC56CCCN5CCC6)nc4N4CCC(O)CC(S(C)(=O)=O)C4)C3)c12` (single isomer, unassigned) [Example 480, 1-(7-(8-ethylnaphthalen-1-yl)-2-((tetrahydro-1H-pyrrolizin-7a(5H)-yl)methoxy)-5,6,7,8-tetrahydropyrido[3,4-d]pyrimidin-4-yl)-6-(methylsulfonyl)azepan-4-ol], the half-inhibitory concentration (IC50) at KRas G12S was 67 nM; on KRas Q61H it was 61 nM; at KRas G12C it was 56 nM; on KRas G13D, 57 nM; on KRas WT, 52 nM; on KRas G12A, 58 nM.
On to `Cc1cc2[nH]ncc2c(N2CCc3c(nc(OCC45CCCN4CCC5)nc3N3CCCC4(CC(O)C4)C3)C2)c1C` (single isomer, unassigned; isomer 2) [Example 454, 6-(7-(5,6-dimethyl-1H-indazol-4-yl)-2-((hexahydro-1H-pyrrolizin-7a-yl)methoxy)-5,6,7,8-tetrahydropyrido[3,4-d]pyrimidin-4-yl)-6-azaspiro[3.5]nonan-2-ol (isomer 2)], for which the IC50 on KRas G12S amounted to 728 nM; on KRas Q61H it was 1400 nM; on KRas G12C, 585 nM; at KRas G13D, 1440 nM; at KRas WT, 1080 nM; at KRas G12A it was 645 nM.
For the molecule `CCc1c(F)ccc2cc(O)cc(N3CCc4c(nc(OC[C@@]56CCCN5C[C@H](F)C6)nc4N4CCCn5nc(C(=O)N6CC7(CCN7)C6)cc5C4)C3)c12` [Example 233, (5-(7-(8-ethyl-7-fluoro-3-hydroxynaphthalen-1-yl)-2-(((2R,7aS)-2-fluorohexahydro-1 H-pyrrolizin-7a-yl)methoxy)-5,6,7,8-tetrahydropyrido[3,4-d]pyrimidin-4-yl)-5,6,7,8-tetrahydro-4H-pyrazolo[1,5-a][1,4]diazepin-2-yl)(1,6-diazaspiro[3.3]heptan-6-yl)methanone], the inhibition at 0.1 µM in the assay on H460 cells was -7%; in the assay on H727 cells (NCI-H727, single point at 100 nM, 3 hrs compound incubation) it was 31%; in the assay with ASPC1 cells (ASPC1, single point at 100 nM, 3 hrs compound incubation), 30%; in the assay with HCT116 cells, -10%. For the same molecule, the IC50 is 346 nM in the assay on H727 cells (Cisbio pERK HTRF) and 94 nM in the assay with ASPC1 cells (Cisbio pERK HTRF).
Consider `CCc1c(F)ccc2cc(O)cc(N3CCc4c(nc(OCC5(CN(C)C)CC5)nc4N4CCCC5(CNC(=O)N5)C4)C3)c12` (centres unmarked) [Example 428, 7-(2-((1-((dimethylamino)methyl)cyclopropyl)methoxy)-7-(8-ethyl-7-fluoro-3-hydroxynaphthalen-1-yl)-5,6,7,8-tetrahydropyrido[3,4-d]pyrimidin-4-yl)-1,3,7-triazaspiro[4.5]decan-2-one], for which the inhibition at 0.1 µM with H460 cells was 68%; in the assay on HCT116 cells, 30%. Besides, the IC50 was found to be 199 nM in the assay on H727 cells (Cisbio pERK HTRF) and 29 nM with ASPC1 cells (Cisbio pERK HTRF).
With `CCc1c(F)ccc2cc(O)cc(N3CCc4c(nc(N5CC(N(C)C)C5)nc4N4CCC[C@@](C)(O)C4)C3)c12` [Example 434, (R)-1-(2-(3-(dimethylamino)azetidin-1-yl)-7-(8-ethyl-7-fluoro-3-hydroxynaphthalen-1-yl) -5,6,7,8-tetrahydropyrido [3,4-d]pyrimidin-4-yl)-3-methylpiperidin-3-ol], the IC50 on KRas G12S worked out at 405 nM; at KRas Q61H, 547 nM; on KRas G12C, 382 nM; at KRas G13D it was 337 nM; on KRas WT, 357 nM; at KRas G12A it was 362 nM.
As to `CCc1cccc2cccc(N3CCc4c(nc(OCC56CCCN5CCC6)nc4N4CCn5ncc(P(C)(C)=O)c5C4)C3)c12` [Example 475, (5-(7-(8-ethylnaphthalen-1-yl)-2-((tetrahydro-1H-pyrrolizin-7a(5H)-yl)methoxy)-5,6,7,8-tetrahydropyrido[3,4-d]pyrimidin-4-yl)-4,5,6,7-tetrahydropyrazolo[1,5-a]pyrazin-3-yl)dimethylphosphine oxide], the IC50 came out at 8610 nM at KRas G12S; 11300 nM at KRas Q61H; 6990 nM on KRas G12C; 19100 nM at KRas G13D; 11300 nM on KRas WT; 8970 nM on KRas G12A.
Regarding `CCc1cccc2cccc(N3CCc4c(nc(OCC56CCCN5CCC6)nc4N4CCn5nc(P(C)(C)=O)cc5C4)C3)c12` [Example 476, (5-(7-(8-ethylnaphthalen-1-yl)-2-((tetrahydro-1H-pyrrolizin-7a(5H)-yl)methoxy)-5,6,7,8-tetrahydropyrido[3,4-d]pyrimidin-4-yl)-4,5,6,7-tetrahydropyrazolo[1,5-a]pyrazin-2-yl)dimethylphosphine oxide], the IC50 on KRas G12S was determined as 7560 nM; on KRas Q61H, 25400 nM; at KRas G12C, 6600 nM; on KRas G13D it was 23900 nM; on KRas WT it was 13600 nM; at KRas G12A it was 8510 nM.
Turning to `CCc1c(F)ccc2cc(O)cc(N3CCc4c(nc(N5CC(N)C5)nc4N4CCCC5(C4)NC(=O)NC5=O)C3)c12` (centres unmarked) [Example 627, 7-(2-(3-aminoazetidin-1-yl)-7-(8-ethyl-7-fluoro-3-hydroxynaphthalen-1-yl)-5,6,7,8-tetrahydropyrido[3,4-d]pyrimidin-4-yl)-1,3,7-triazaspiro[4.5]decane-2,4-dione], the IC50 in the assay on H727 cells and with ASPC1 cells was greater than 10000 nM each time.
As to `CCc1c(F)ccc2cc(O)cc(N3CCc4c(nc(OC[C@@]56CCCN5C[C@H](F)C6)nc4N4CCCC5(C4)NC(=O)CC54COC4)C3)c12` (stereo partly drawn) [Example 629, 7-(7-(8-ethyl-7-fluoro-3-hydroxynaphthalen-1-yl)-2-(((2R,7aS)-2-fluorotetrahydro-1H-pyrrolizin-7a(5H)-yl)methoxy)-5,6,7,8-tetrahydropyrido[3,4-d]pyrimidin-4-yl)-2-oxa-7,11-diazadispiro[3.0.55.34]tridecan-12-one], the IC50 in the assay on H727 cells turned out to be 1670 nM; with ASPC1 cells, 2550 nM.
For `CCc1c(F)ccc2cc(O)cc(N3CCc4c(nc(OC[C@@]56CCCN5C[C@H](F)C6)nc4N4CCCn5nc(CCO)cc5C4)C3)c12` [Example 630, 5-ethyl-6-fluoro-4-(2-(((2R,7aS)-2-fluorotetrahydro-1H-pyrrolizin-7a(5H)-yl)methoxy)-4-(2-(2-hydroxyethyl)-7,8-dihydro-4H-pyrazolo[1,5-a][1,4]diazepin-5(6H)-yl)-5,8-dihydropyrido[3,4-d]pyrimidin-7(6H)-yl)naphthalen-2-ol], the IC50 stood at 753 nM in the assay with H727 cells and 361 nM with ASPC1 cells.
Turning to `CCc1c(F)ccc2cc(O)cc(N3CCc4c(nc(OCC5(CN(C)C)CC5)nc4N4CCCN(c5nccs5)CC4)C3)c12` [Example 645, 4-(2-((1-((dimethylamino)methyl)cyclopropyl)methoxy)-4-(4-(thiazol-2-yl)-1,4-diazepan-1-yl)-5,8-dihydropyrido[3,4-d]pyrimidin-7(6H)-yl)-5-ethyl-6-fluoronaphthalen-2-ol], the half-maximal inhibitory concentration (IC50) with H727 cells and in the assay with ASPC1 cells was 4640 nM in each case.
Turning to `CCc1c(F)ccc2cc(O)cc(N3CCc4c(nc(OCC5(CN(C)C)CC5)nc4N4CCCN(CC(F)(F)F)CC4)C3)c12` [Example 646, 4-(2-((1-((dimethylamino)methyl)cyclopropyl)methoxy)-4-(4-(2,2,2-trifluoroethyl)-1,4-diazepan-1-yl)-5,8-dihydropyrido[3,4-d]pyrimidin-7(6H)-yl)-5-ethyl-6-fluoronaphthalen-2-ol], the IC50 in the assay on H727 cells was determined as 4640 nM; in the assay on ASPC1 cells it was 6300 nM.
As to `CCc1c(F)ccc2cc(O)cc(N3CCc4c(nc(OCC5(CN(C)C)CC5)nc4N4CCCN(C(=O)Cc5ccccn5)CC4)C3)c12` [Example 647, 1-(4-(2-((1-((dimethylamino)methyl)cyclopropyl)methoxy)-7-(8-ethyl-7-fluoro-3-hydroxynaphthalen-1-yl)-5,6,7,8-tetrahydropyrido[3,4-d]pyrimidin-4-yl)-1,4-diazepan-1-yl)-2-(pyridin-2-yl)ethan-1-one], the IC50 in the assay with H727 cells and in the assay on ASPC1 cells was greater than 10000 nM each time.
For `CCc1c(F)ccc2cc(O)cc(N3CCc4c(nc(OC[C@@]56CCCN5C[C@H](F)C6)nc4N4CCCN(C(=O)Cc5ccccn5)CC4)C3)c12` [Example 650, 1-(4-(7-(8-ethyl-7-fluoro-3-hydroxynaphthalen-1-yl)-2-(((2R,7aS)-2-fluorotetrahydro-1H-pyrrolizin-7a(5H)-yl)methoxy)-5,6,7,8-tetrahydropyrido[3,4-d]pyrimidin-4-yl)-1,4-diazepan-1-yl)-2-(pyridin-2-yl)ethan-1-one], the IC50 with H727 cells and in the assay on ASPC1 cells was greater than 10000 nM each time.
As for `CCc1c(F)ccc2cc(O)cc(N3CCc4c(nc(OC[C@@]56CCCN5C[C@H](F)C6)nc4N4C[C@H]5CC[C@@H](C4)[C@H]5C#N)C3)c12` [Example 652, (1R,5S,8R)-3-(7-(8-ethyl-7-fluoro-3-hydroxynaphthalen-1-yl)-2-(((2R,7aS)-2-fluorotetrahydro-1H-pyrrolizin-7a(5H)-yl)methoxy)-5,6,7,8-tetrahydropyrido[3,4-d]pyrimidin-4-yl)-3-azabicyclo[3.2.1]octane-8-carbonitrile], the IC50 in the assay with H727 cells and in the assay with ASPC1 cells was greater than 10000 nM each time.
